Assay results reported in publication PMC12136788.
Some of the results follow.

T1: UNK ZnF1-3 (human, UniProt Q9C0B0 31-174)
T1 sequence: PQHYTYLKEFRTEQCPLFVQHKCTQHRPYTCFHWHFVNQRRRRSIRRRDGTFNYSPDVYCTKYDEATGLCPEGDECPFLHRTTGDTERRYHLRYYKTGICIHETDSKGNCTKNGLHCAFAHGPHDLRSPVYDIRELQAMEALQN

B1: chr12:89743083:89743084:-_ENSG00000139318_ENST00000308385|hu_mus|FALSE|FALSE (ssRNA)
RNA: GGGAGUUCUACAGUCCGACGAUCCUUUCACGUAGACUGCAGGGAGUCCACCUGGUAGACGUUCUGGUUGGAGGGCGUGGUGAAGUACAGCUGCGGAGUGGGGACACGGUUGUCACAAGGGCUGCUCAGUCCCAGGGUCCUUUCCAACAGAGGAUUGAGCAUCA
B2: chr6:38652254:38652255:-_ENSG00000124767_ENST00000373365|hu_hu|hu_hu_hu_mus_False|8_28 (ssRNA)
RNA: GGGAGUUCUACAGUCCGACGAUCCGAGAACUUCAUAGCAGGGAAGUCAAGCUUCUGCAGGAGGGUCAGUCCAAGAACCCUCGUAUAAAAAUCCAGGGACUUCUUAGGAUCCUUCACUCUUAGCAUCGUCUGCUGCAGUAGAAACAACAGAGGAUUGAGCAUCA
B3: chr7:91030085:91030086:-_ENSMUSG00000070462_ENSMUST00000094216|mus_hu|FALSE|FALSE (ssRNA)
RNA: GGGAGUUCUACAGUCCGACGAUCAAAUACUCCAGUACAUGCAAGGUAAAAACUUGACGUUGGGGGAAAAAAAAAUCACUCUAUAGUGUAAAUUAAAAAAACACACGCUCACAGUAGCUUCCCCCCAUUUGCAAAUCACAUGGCCAACAGAGGAUUGAGCAUCA
B4: chr15:66811301:66811302:+_ENSG00000174442_ENST00000446801|hu_mus|FALSE|FALSE (ssRNA)
RNA: GGGAGUUCUACAGUCCGACGAUCCUCAGCUCCUAGCCAACAGGUACCUUCAGGAUCUGAACCGUCACAUCUCACCCAAAGAGGAGGAAGGGCUGUCACUGGCUGCUUAAUCUUCAGAUGAGUCAUAUUAGGAUUGUGAGCCAUCAACAGAGGAUUGAGCAUCA
B5: chr7:117185563:117185564:+_ENSMUSG00000066232_ENSMUST00000084731|mus_hu|FALSE|FALSE (ssRNA)
RNA: GGGAGUUCUACAGUCCGACGAUCGGGCUUCAGAUUCUUCCAGGUGAGAGCAUGAGAAACUCCUUGAUUAAUAUAAUUUAAUGUCUGUUGUAAAACUCGAGGAGCCAUAUAUUGCUUCUCCUUGUACUGAUAUAACACCUUCAACAACAGAGGAUUGAGCAUCA
B6: chr7:135612270:135612271:-_ENSG00000105887_ENST00000393085|hu_mus|hu_hu_hu_mus_False|48_48 (ssRNA)
RNA: GGGAGUUCUACAGUCCGACGAUCGUUUUUUUCUGAGAUGUUAAAUAGUACUUCAGUGGAAAACAAAACUUAACCUUUUAUUAAUGCAUGUAGUACCAAAAGCAGACAUUUUAGCUUCAUUUAUUCAAAAAUAUUAACAUUAAGCAACAGAGGAUUGAGCAUCA
B7: chr14:78183846:78183847:+_ENSG00000119705_ENST00000557342|hu_hu|hu_hu_hu_mus_False|58_78 (ssRNA)
RNA: GGGAGUUCUACAGUCCGACGAUCUCUCAGAAAUCUUUCUUCAUCAGAUGUUUGAGCUGUUUGCGGAGCCUUUGCUCUUCUAGUGUGAACGUGGAUCUAUGGGAGGGAAAGCACUGUCAGAAAAGGUAAUUUUUUUUUUAAAGACAACAGAGGAUUGAGCAUCA
B8: chr14:76904430:76904431:+_ENSMUSG00000022010_ENSMUST00000022587|mus_mus|mus_mus_mus_hu_True|1_28 (ssRNA)
RNA: GGGAGUUCUACAGUCCGACGAUCUGCAGCCAAAAACACCCUCGUGGAAAAAAAGAGGGAACACCAGCAGCCUUGUAUAAGCUAGAUAAAAUCUUCUGGCUUUCCGCAGCUCAGGGCGAAACAGAAAACGGCAGCCCUCGAGUGCAACAGAGGAUUGAGCAUCA
B9: chr15:27661301:27661302:-_ENSMUSG00000022263_ENSMUST00000090247|mus_hu|FALSE|FALSE (ssRNA)
RNA: GGGAGUUCUACAGUCCGACGAUCAACCCCAACACACACACAAAACCAUAAAGCUCACCAUACGAAGUAUGUGCUUUUUCUAUAUAUUUAUUACAGGUACAACAGAGGUCUUCAUAAAUAGUUGCAUAAAAUGUUAAAGCCACACAACAGAGGAUUGAGCAUCA
B10: 113753070_113754672_3543_CDS_ENSMUSG00000042426_ENSMUST00000038574|mouse|control|control (ssRNA)
RNA: GGGAGUUCUACAGUCCGACGAUCUAACUCCUGCUUCACAUCCUCGAGUGUCAACAGUGACGUUCUGUUUAGGAAGUUCCUCUGGCAAUAUGAGAUCUCAGAGCGGAAGCCUCCUUCUUGCUGGGCUUUCUUCCACCCUAGAUACAACAGAGGAUUGAGCAUCA
B11: chr11:44375045:44375046:+_ENSMUSG00000019189_ENSMUST00000019333|mus_hu|FALSE|FALSE (ssRNA)
RNA: GGGAGUUCUACAGUCCGACGAUCACAGAGGGCCACAAGAAACUCCAGCAGGCGGUAAGUGCCAUUCACAUAGUAGAUGACAUCAUCCAUGUUUUCCACUGGCUCUUUUCUGAAUUCCUCAACCAUAAAUAAGACAUAAAUAAACAACAGAGGAUUGAGCAUCA
B12: chr10:131964826:131964827:+_ENSG00000108010_ENST00000331244|hu_hu|FALSE|FALSE (ssRNA)
RNA: GGGAGUUCUACAGUCCGACGAUCACUGGAAUAGGCUUUGAGUCCCUGUCGAACCUCUUCAUCUGAGAAGAUAUCAAAACUGCUAAACUGAAUAUUAUGUUUGUGAAGAAUUUCCACCAUCUGCUUGCUGAAACCACAGCGUGGCAACAGAGGAUUGAGCAUCA
B13: chr10:108335898:108335899:-_ENSG00000108018_ENST00000263054|hu_hu|FALSE|FALSE (ssRNA)
RNA: GGGAGUUCUACAGUCCGACGAUCACUCUUUCGCAUACAGUAUAUGUUUCCAGGUGGGAAAAGGCAGGGAUAUUUGAAAAAGGCAGGUUCUAGAGGAAAAGACAAAGAUACAUGAAACUGAACCCUGCUGUGCAGGAUGCAGCACAACAGAGGAUUGAGCAUCA
B14: chr3:19126325:19126326:-_ENSMUSG00000069094_ENSMUST00000091314|mus_mus|motif|central (ssRNA)
RNA: GGGAGUUCUACAGUCCGACGAUCGCUUGCUCUACAUAAGACCACUGAAAACAACUUACAAAAGUGGAAUGUUUUAAGUCGGAAAUUAGUCCUUAAAUUUUAUCCUAGAAAACAUCUACUCACAUCAAAAGGUCCGCCAAAGGGCAACAGAGGAUUGAGCAUCA
B15: chr2:73747962:73747963:-_ENSMUSG00000018770_ENSMUST00000018914|mus_mus|motif|central (ssRNA)
RNA: GGGAGUUCUACAGUCCGACGAUCAGAGCCCUCUCCAGUCCUAGUCUCUGGCCGAGAUAACACUGAUGCAGAAAUUGGUCGGUAUGCAACUCUGGAUCCAGCUCGGAUCAGAGCGGGGGUGCGGGCGAGCUUGGCGCAGGCGAACAACAGAGGAUUGAGCAUCA
B16: 20066896_20067016_4003_CDS_ENSG00000166833_ENST00000396085|human|control|control (ssRNA)
RNA: GGGAGUUCUACAGUCCGACGAUCGGAAGGCUCCCUCAGUUUGGGCACUGGCAGGCCUGCGGACUUGCUGCUAAUGUUGGAAUCUAUGCUGCUGGUGCUAGACCUGUUCCCAGCCCCGUUCCGGCUGUUGGACUUACUGGGCCUCAACAGAGGAUUGAGCAUCA
B17: chr7:141445308:141445309:+_ENSG00000106028_ENST00000265304|hu_hu|FALSE|FALSE (ssRNA)
RNA: GGGAGUUCUACAGUCCGACGAUCUAUGAUUGUUGUUGCUUGUCGCCUCACAUUAUUUUUAUCCAUGUAUUCACCAUAGUCUAUUUUCCCUUCCAAAUAAAUUCGAGACCCCUUUUUCACAUAUUGAUAUGCCACGUCUCUGAGCAACAGAGGAUUGAGCAUCA
B18: chr7:3571038:3571039:+_ENSMUSG00000035674_ENSMUST00000076657|mus_mus|FALSE|FALSE (ssRNA)
RNA: GGGAGUUCUACAGUCCGACGAUCUGGGUAGUUGUAGGGUGUGGCCUUGUUGAUCAUGCUAGCAUACUUGGUGUAGGGGCUAAUCAUGGGCAUAAUUAUAGCGAGGCCCCAGACAGAGAAGGACACCACCAGCACCGGCUCCUUCAACAGAGGAUUGAGCAUCA
B19: 82448380_82448500_4964_3pUTR_ENSMUSG00000028403_ENSMUST00000030110|mouse|control|control (ssRNA)
RNA: GGGAGUUCUACAGUCCGACGAUCAGACAGUCUAGACAGAAAUUAGUAUAGAGCUAAUGAAUAUUAGUGCCAUAUUAAGCCACUGCAAGACAAAUUGUGAUUUUUUUUUCUUUUUUAGCAAUACAUGUAAGAACAUUCAAACUACAACAGAGGAUUGAGCAUCA
B20: chr7:149068622:149068623:-_ENSMUSG00000025139_ENSMUST00000001950|mus_hu|mus_mus_mus_hu_False|58_78 (ssRNA)
RNA: GGGAGUUCUACAGUCCGACGAUCGUGAGGCCUCUGAGUGUGGCUUGUGGUCUGUCCUGUCUGCAGUUUGUUAAUAUCACUAAGUGGACCAUCUAGAACGUUCCAGUCCCGCCUGACACCUUCAUUCCCAAUGGAGAAGAAAUCCAACAGAGGAUUGAGCAUCA
B21: chr8:101932826:101932827:-_ENSG00000164924_ENST00000353245|hu_mus|motif|central (ssRNA)
RNA: GGGAGUUCUACAGUCCGACGAUCAAUAUAGAAAUUCAAAUAGAAGUAACAUAAACCUGUCAUAAAUCGUAAACAAAAAAACGGUCUGUGGGACAGCAUGGAUGACAAAUGGUCUACUGUGUAAAUUUUAGAAUGAGGCAGACACAACAGAGGAUUGAGCAUCA
B22: chr3:9412954:9412955:+_ENSG00000134077_ENST00000452837|hu_mus|hu_hu_hu_mus_False|1_8 (ssRNA)
RNA: GGGAGUUCUACAGUCCGACGAUCGGUUGAUAUCUCUUCUUUGAUGGCUGGAUUUUCAUAAUAGUCCAAGAUAUGUGAAUCUGAAGUGCUGCUGGCAUGCUUUUUCUUACCAUCUUUCUCAUCUGCUUUGACUUCUUGUCCAUUCAACAGAGGAUUGAGCAUCA

These binders were tested against T1, UNK ZnF1-3 (assay: nsRBNS (natural sequence RNA bind-n-seq); RBNS binding buffer (assumed for nsRBNS): 25 mM Tris pH 7.5, 150 mM KCl, 3 mM MgCl2, 0.01% Triton X-100, 500 ug/ml BSA, 20 U/ml SUPERase-In, 4 C; UNK is unkempt and MSI1 is Musashi-1; names of the RNAs are library labels; protein concentration not given here; high values mean tight binding).
B1 gave a binding signal of 1.04 enrichment R.
B2 was tested, and the binding signal was 0.636 enrichment R.
For B3, the binding signal was 2.29 enrichment R.
B4 gave a binding signal of 1.52 enrichment R.
B5 gave a binding signal of 1.43 enrichment R.
B6 gave a binding signal of 0.738 enrichment R.
B7 was tested, and the binding signal was 2.63 enrichment R.
With B8 the binding signal was 1.58 enrichment R.
Binder B9 has a binding signal of 2.04 enrichment R.
B10 gave a binding signal of 0.523 enrichment R.
Work on B11 yielded a binding signal of 1.23 enrichment R.
Work on B12 yielded a binding signal of 1.03 enrichment R.
B13 was tested, and the binding signal was 1.63 enrichment R.
B14 gave a binding signal of 1.28 enrichment R.
B15 was tested, and the binding signal was 1.21 enrichment R.
B16 showed a binding signal of 0.782 enrichment R.
In the case of B17, the binding signal is reported as 0.64 enrichment R.
In the case of B18, the binding signal is reported as 1.01 enrichment R.
B19 gave a binding signal of 0.718 enrichment R.
Work on B20 yielded a binding signal of 0.922 enrichment R.
B21 gave a binding signal of 1.94 enrichment R.
For B22, the binding signal was 0.279 enrichment R.
